Measurements: the RNAGym collection of RNA variant scans (doi:10.7554/elife.90254)
Read counts are not given, so values of variants with three or more changes are uncertain.

B1: LINE1-mini (parent)
chain: GGCAGAGCUCAACACAGCGUGGCAAAGUGGCUGUGGCUAGACUGCC

Variants of: B1
Assay: self-cleavage, relative activity (ratio to wild type); higher = more cleavage; in vitro, sequencing; the parent is a self-cleaving ribozyme
With A6U A11C G40A the self-cleavage was 0.02.
G19A G27U G35A C42G showed a self-cleavage of 0.04.
For A4C G5C C10G, the self-cleavage was 0.01.
For A4U C10G U43G, the self-cleavage was 0.02.
In the case of G7A A24G A26U G27A G40C, the self-cleavage is reported as 0.14.
With C3A C10G C15A U32A G40A the self-cleavage was 0.01.
With U20A A26C G27A the self-cleavage was 0.5.
A6U C10G A14U G35U gave a self-cleavage of 0.04.
Work on A11U A16G U20C C42G U43C yielded a self-cleavage of 0.
G5C A16U G29A G35U C45U showed a self-cleavage of 0.
For C8A A24U G30U G36U G40U, the self-cleavage was 0.25.
U9G A14G C18U G29U showed a self-cleavage of 0.02.
Variant G1C G2A C8G U9G G21A C31G has a self-cleavage of 0.02.
Variant C13A G30U C37A G44A C45A has a self-cleavage of 0.01.
Variant U34C G36C C46A has a self-cleavage of 0.02.
Variant G1A U9A A26C U28G has a self-cleavage of 0.4.
For C8A A16C C37U C45G, the self-cleavage was 0.22.
In the case of C10U U43G C46U, the self-cleavage is reported as 0.05.
C13A C15A G27A G30A U32A showed a self-cleavage of 0.07.
For C23U A24C U43C, the self-cleavage was 0.05.
Work on C10G A11U A12U C23U yielded a self-cleavage of 0.02.
For A4C A16G U20A, the self-cleavage was 0.03.
With A4C G22U A41U the self-cleavage was 0.56.
C13A A25G G33A gave a self-cleavage of 0.02.
G2U C8U G36A gave a self-cleavage of 0.08.
Variant A12G C13A U32C A41U has a self-cleavage of 0.03.
In the case of C3A G27A C46A, the self-cleavage is reported as 0.2.
In the case of G2A C42A U43G, the self-cleavage is reported as 0.27.
Variant G2U A14U C31G has a self-cleavage of 0.01.
G2A C10U U34C showed a self-cleavage of 0.06.
A24U G27A G35U C46U gave a self-cleavage of 0.07.
For A6U U9G C23G A26G, the self-cleavage was 0.08.
In the case of A16G C18U A41G, the self-cleavage is reported as 0.09.
For C3U G7A C8G C23A G29C G35A, the self-cleavage was 0.11.
Work on C3A A14U C23A G36A yielded a self-cleavage of 0.33.
Variant C8U U9A A11C A16U has a self-cleavage of 0.02.
Variant G2U A11C C13A has a self-cleavage of 0.03.
Variant G7C G19A U20A G22U C45A has a self-cleavage of 0.06.
G2C C10A C13U gave a self-cleavage of 0.1.
Variant G1U A26U A39U has a self-cleavage of 0.15.
Work on G27C U34G U38C yielded a self-cleavage of 0.02.
For C23U A41C G44U, the self-cleavage was 0.13.
G2A U9G C15A U20A G22C A26C G27A showed a self-cleavage of 0.41.
Work on A6C G22U G40U yielded a self-cleavage of 0.12.
For A4C U9G U20C C42G, the self-cleavage was 0.03.
Work on G2A C10A G30C C46A yielded a self-cleavage of 0.05.
Variant G1C G33U U34A has a self-cleavage of 0.01.
U9G A16U G29U gave a self-cleavage of 0.01.
Variant G21A G22U G27C U43G C46A has a self-cleavage of 0.02.
In the case of A12C C18G G35A U43G G44A, the self-cleavage is reported as 0.
With G7A C23A A24G the self-cleavage was 0.79.
Variant G1A U28C G30C has a self-cleavage of 0.61.
U20G C23G A25U G40C C45U gave a self-cleavage of 0.12.
A16U G30C A39C C45U gave a self-cleavage of 0.04.
Work on A11C G22A A25U yielded a self-cleavage of 0.04.
Work on A6U C8U A11C yielded a self-cleavage of 0.04.
C8A C13U G30U gave a self-cleavage of 1.09.
For A6G G7U C10G G17A, the self-cleavage was 0.03.
Variant A4U U20A G35U C46A has a self-cleavage of 0.01.
Work on A12C G21C G33C C45G yielded a self-cleavage of 0.
Work on A6U A12C G29C yielded a self-cleavage of 0.
For A6U A11U A26U G33C A41G, the self-cleavage was 0.04.
G27A G33C C37G showed a self-cleavage of 0.02.
For C13A C18U G22C A25C G30A, the self-cleavage was 0.15.
Work on A16C G27U U38C yielded a self-cleavage of 0.2.
In the case of G5A A11U C46G, the self-cleavage is reported as 0.03.
Variant C15A C23A C42U has a self-cleavage of 0.
Work on C13G U20G U34A yielded a self-cleavage of 0.07.
With A11G C13U C46U the self-cleavage was 0.
Variant C3U C31U C46G has a self-cleavage of 0.03.
In the case of U9A C10A U20G G36U, the self-cleavage is reported as 0.03.
A6U G27U G36U A39C G40U gave a self-cleavage of 0.25.
A26U G27U C37A showed a self-cleavage of 0.09.
For U20A G40C C42G, the self-cleavage was 0.02.
In the case of U9C C13U A25U, the self-cleavage is reported as 0.05.
In the case of U9C G21U G22U C45G, the self-cleavage is reported as 0.01.
With C10U G21U A41U the self-cleavage was 0.14.
With G1C U20A A26G G30C A39U the self-cleavage was 0.11.
Work on G1U A12G C15U G27A C37G G40U yielded a self-cleavage of 0.13.
With G2C C10U G29U U32G the self-cleavage was 0.03.
Variant G7A C10G C23U G33C has a self-cleavage of 0.04.
U38C A41G C46A showed a self-cleavage of 0.11.
Variant G2A A24U G27U G36A G44U C45A has a self-cleavage of 0.01.
A4U A11C C42A gave a self-cleavage of 0.
C3G A12C A16C A25C G35U G40C showed a self-cleavage of 0.
Work on U9A A39U C46A yielded a self-cleavage of 0.18.
Work on G1C G7U C10G A11C U20A A26G C45U yielded a self-cleavage of 0.
With C10A C15A G19U C31G the self-cleavage was 0.
Work on G7A U9C A11U yielded a self-cleavage of 0.57.
G2C A25G A26U G35A showed a self-cleavage of 0.21.
For G7U C18G C23G G27U G29A, the self-cleavage was 0.03.
With G27A U32G A41G the self-cleavage was 0.03.
Variant C13A A24U U28C has a self-cleavage of 0.1.
A6U C10A G21A C46A gave a self-cleavage of 0.49.
C3G C15U C42G G44A C46A gave a self-cleavage of 0.14.
In the case of C3U G5A C10U G29C, the self-cleavage is reported as 0.06.
In the case of C10U U20A A41C, the self-cleavage is reported as 0.05.
In the case of C18U A24G A25G G27C C45G, the self-cleavage is reported as 0.07.
For G1A C23U U28G, the self-cleavage was 0.07.
Variant C10G C15A C46G has a self-cleavage of 0.03.
In the case of A4C A26C A41C C42U, the self-cleavage is reported as 0.21.
G5C G17U C18A A24G U32A C46U gave a self-cleavage of 0.28.
Variant A6U C8G C15G C18U has a self-cleavage of 0.01.
With G2A C15G G30A C45U the self-cleavage was 0.04.
For G17U C18U U32A U43G C46U, the self-cleavage was 0.03.
Work on G2A C3U C10U A39U G40A yielded a self-cleavage of 0.07.
Variant G5C C15A C31G has a self-cleavage of 0.04.
For A4G U9C C46A, the self-cleavage was 0.01.
With A16G C23G A26G G30C A41G G44C the self-cleavage was 0.01.
With C8U A12G G22C the self-cleavage was 0.02.
C10G A12U C18A showed a self-cleavage of 0.01.
With C8U C31U G40U the self-cleavage was 0.19.
Work on G22A A24C C42U yielded a self-cleavage of 0.5.
Variant A26U U32C G36U G40U C42U U43A has a self-cleavage of 0.19.
G2C C13A A14C A16U U34G C46A showed a self-cleavage of 0.13.
A11C U20G G40A C45A gave a self-cleavage of 0.01.
Variant U34G C42G G44U has a self-cleavage of 0.04.
Work on A6U G7A G19A yielded a self-cleavage of 0.18.
For A4G G33U A41U, the self-cleavage was 0.19.
C8G G40A U43G showed a self-cleavage of 0.
With G5A U28A C46U the self-cleavage was 0.04.
C13A G35U G40A gave a self-cleavage of 0.15.
G7U G30C C46A gave a self-cleavage of 0.06.
Variant G17A C23G A24G C46U has a self-cleavage of 0.06.
Variant G1C A4U G5A C8G U38A has a self-cleavage of 0.02.
A12C C13A G27C U38A showed a self-cleavage of 0.02.
With C10G A11G C13A the self-cleavage was 0.02.
A16U G29U G35A C37U showed a self-cleavage of 0.16.
G30A C31U U34A C42G showed a self-cleavage of 0.02.
Variant G27U G29U U34C G35A has a self-cleavage of 0.07.
For A12U U20C G22A U34A G36A C37U C45G, the self-cleavage was 0.18.
Variant A6U G29U U34A has a self-cleavage of 0.33.
With G7U C18A G19A C31A U34A A41U the self-cleavage was 0.
A6U G19A C31A G44U showed a self-cleavage of 0.1.
Work on U28C G35U A39C yielded a self-cleavage of 0.12.
Work on A4G C8A A16G G33A G35C G40C yielded a self-cleavage of 0.02.
With C3A G33A C42A the self-cleavage was 0.14.
With G5A U9A A16U C45G C46U the self-cleavage was 0.2.
With C10A G29U U34A the self-cleavage was 0.05.
Work on C10A U20A G22U G36U yielded a self-cleavage of 0.03.
Variant A12U C31A U43A has a self-cleavage of 0.03.
G17U C31U G35A G44U showed a self-cleavage of 0.03.
Work on C10A A11G C37U yielded a self-cleavage of 0.02.
A12U A25U U34A G36C A39G showed a self-cleavage of 0.
Variant G2A A11U A14U C31U G40A has a self-cleavage of 0.01.
G1C G2A A4U C18G G21A U32A showed a self-cleavage of 0.09.
Work on G1U U28C G36U C45G yielded a self-cleavage of 0.08.
G5A G22U U43C gave a self-cleavage of 0.17.
G1A A12G C15G G19A A26U gave a self-cleavage of 0.05.
Variant G1A G19C U20G has a self-cleavage of 0.5.
For G2C C3G C23A A41U, the self-cleavage was 0.17.
G7U U9A U38A gave a self-cleavage of 0.01.
In the case of G2A C3U A4C C46G, the self-cleavage is reported as 0.09.
For A4G C23G G30A, the self-cleavage was 0.62.
Variant C8G A39C G40A has a self-cleavage of 0.06.
A25G A39G C42A gave a self-cleavage of 0.
Variant G2U C13G C18G has a self-cleavage of 0.01.
Work on A12G G29A G30C yielded a self-cleavage of 0.08.
G2C C10A C13U C42A showed a self-cleavage of 0.
Variant G5C C15G C42U has a self-cleavage of 0.03.
C3G G7A C8G C13U A16C C42G gave a self-cleavage of 0.16.
Variant G2C C10A C42G has a self-cleavage of 0.01.
Work on C10A G33C U38A yielded a self-cleavage of 0.
A12U C13U G27U showed a self-cleavage of 0.16.
In the case of U9A G17A G27C, the self-cleavage is reported as 0.06.
Variant C13U U38C C42G has a self-cleavage of 0.01.
For C23U G29A G33C U34A A39C, the self-cleavage was 0.01.
